Results as given in the RNAGym collection of RNA variant scans (doi:10.7554/elife.90254).
Read counts are not given, so values of variants with three or more changes are uncertain.

B1: LINE1-mini (parent)
chain: GGCAGAGCUCAACACAGCGUGGCAAAGUGGCUGUGGCUAGACUGCC

Variants of: B1
Assay: self-cleavage, relative activity (ratio to wild type); higher = more cleavage; in vitro, sequencing; the parent is a self-cleaving ribozyme
With GGCAGAGGUCAACACAGAGUGGCAAAGUGGCUGUGGCUAGACUGCA the self-cleavage was 0.04. For GGCAGAGCUCAACACAGGGUGGCAAGGUGGCUAUGGCUAGACUGCC, the self-cleavage was 0. In the case of GGCAUAGCUCAACACAGCGUCGCAAAGUGGCUGUGGCUAGACUACC, the self-cleavage is reported as 0.02. Variant CGCAGAGGUCAACACAGCGUGGCAAAGUGGCUGUGGCCAGUCUGCC has a self-cleavage of 0.01. GGCAGAGCUCAACACAGCGUGGCAACGUGGCUCUGGCUAGACUUCC gave a self-cleavage of 0.06. GGCAGAGCUCAACACCGCGUGGCAAAAUGGCUGUGGCUAGACUACC gave a self-cleavage of 0.08. In the case of GACAGAGCUCAAUACAGCGUAGCAUAGUGGCUGUGGCUAGACUGCC, the self-cleavage is reported as 0.38. GGCAGAGCUCAACACAGUGUAGCAAAUUAGCUGUGGCUAGACUGCC gave a self-cleavage of 2.86. In the case of GGCAGAGCGCAACACAGUGUGGCAAAGUGACAGAGGCUAGACUGCC, the self-cleavage is reported as 0.03. Variant GGCAGAGCUCAACACAACGUUGCAAACUGGCUCUGGCUAGGCUGCC has a self-cleavage of 0.01. In the case of GGCAGAGCUCUACACAGCGUGGUAAAGUGGCUGUGGCUAGACAGCC, the self-cleavage is reported as 0.01. In the case of GGGACAGGUCAACACAGCGUGGCAAAGUGGCUGUGGCUAGACUGCC, the self-cleavage is reported as 0.39. For GGCAGAGCUGAACCCAGGGUGACAAACUAGCUGUGGCUAGACUGCC, the self-cleavage was 0. For UGCAGAGCUCAACACGGCGUGGCAAAGUCGCUGUGGCUAGACUGCA, the self-cleavage was 1.25. Work on GGCAGAGCUCAACACAGCGUGGCAAAGUGCAACAGGCUCUACUGCC yielded a self-cleavage of 0.06. GGAAGAGCCCAACACAGCGUGGCAUACUGGUUGUGGCUAGACUGCC showed a self-cleavage of 0.01. Variant GCCAGAGCUCAACACAGCGUGGCAAAUUGGCAGGGGCUAGACUGCC has a self-cleavage of 0.01. Work on GUUAGAGCCCAACACAGCGUGGCAAAGUGGCUGUCGCUAGACUGCC yielded a self-cleavage of 0.05. GGCAGAACUCAACACGGCGUGGCAAAGUGGCUGUGGCUAGACUACC showed a self-cleavage of 0.06. Work on GGCAGAGCUCAACACAGAGUGGCAUAGUGGCUGUGGCUAGACCGCC yielded a self-cleavage of 0.02. With GGCAGAGCUCAACACAGAGUGGCAAAGUGGCAGUAGCUAGAGUGCC the self-cleavage was 0.03. Variant GGCAGAGCUCAACACAGCGUGGCAACGUGGCUGUGGCUAGUCUGCU has a self-cleavage of 0.72. With GGCAUAGGUCAAAACAGCGUGUCAAAGUGGCUGUGGCUAGACUGUC the self-cleavage was 0.13. Variant GGCAAAGCUCGACAGAGCGUGGCACAGUGGCUGUGGCUAGACUGCC has a self-cleavage of 0.01. For GGCAGUGCUCAGCACAGCGUGGAAAAGUGGCUGUGGCUAGACUGCC, the self-cleavage was 0.01. With GGCAGAGCUCAAUACAGCGUGUCAUAGUGGCUGUGGCUAGACUGCC the self-cleavage was 0.11. For AGCAGAUCUCAACACAGCGUGGCAAAGUGGCUGUGGCUAGCCUCCC, the self-cleavage was 1.07. Variant GGCAGAGUUCGACACAGCGUGGCAAAGUGUCUGUGGCUAGACUGCC has a self-cleavage of 0.01. Variant GGCAGAGCUCAACCCAGCGUGGCAAAGGGGCUGUGGCGAGACCGCC has a self-cleavage of 0.09. With GGCAGAGCACAACACAGCGUGGCAAAGUGCAUGUGGCUAAACUGCC the self-cleavage was 0.07. GGCAGAGCUGAACACAGCGUGGCAAAGUGGCUGUUGAUAGACUGCC showed a self-cleavage of 0.03. In the case of GGCAGAGCUAAACACAGCGUGGCAAAGUGGCUGUGGCUAGAUUGUC, the self-cleavage is reported as 0.09. With GGCAGAGCUCAAGACAGCCUGGCCAAGUGGCUGUAGUUAGACUGCC the self-cleavage was 0.02. GGCAGAGCUCAACACAGCGUGCCAAUGUUGCUGUGCUUAGACUGCC showed a self-cleavage of 0.01. For GGCAGACCUCAAUACAGCGUGGCAAAGGGGCUGUGGGUAGAUUGCC, the self-cleavage was 0.06. For GGAAGUGCUCAACACAGCGUGGCACAGUGCCUGUGGCUAGACUGCC, the self-cleavage was 0.07. GGCAGGGCUCAGCACCGCGUGGCAAAGUGGCUGUGGCUAGAUUGCC gave a self-cleavage of 0.01. UGCAGAGCAAAACACAGCGCGGAAAAGUGGCCGUGGCUAGACUUCC gave a self-cleavage of 0.01. GGCAGAGCUCAACACAGCGUGGCUAAGUGGCUGUGGCAAGUCUGCC showed a self-cleavage of 0.22. Work on GUCAGCGCUCAACACAGCGUGGCAAAGUGGCUGUGGAUAGACUGCC yielded a self-cleavage of 0.1. UGCAGAGCUCAACACAGCAUGACAAAGUGGCUGUGGCUAGACUGCC gave a self-cleavage of 0.09. Variant GGCAGAUCUCAACACAGCGUGGCAAAGUGGCUGAGGCUAGACAGCC has a self-cleavage of 0.02. In the case of GGCAGAGCUCAACUCAGCGUGGCAAAGUCGCUGUGGCCAGACUGCC, the self-cleavage is reported as 0.02. For GGCAGAGGUCAACACAGCGUGGCCAAGCGGCUGUGGCUAGACUGCC, the self-cleavage was 0.05. With GGCAGAGCUCAACACAGCCUGGCAAAGUUGCUGUGGCUAGACUCCC the self-cleavage was 0.07. In the case of GGCAGAUCUCAACACAGCGUGGCACAGUGACUGUGGAUAGACUGCC, the self-cleavage is reported as 0.06. Variant GGCAAAGCUCAACACAGCGUGGCAAAGUGGCUCCGGCUAGGCUGCC has a self-cleavage of 0.03. GGCAGAGUUCAACACAGCGUGCCAAAGUGGCUGUGGCUAGACUGGC gave a self-cleavage of 0.03. For GGCAGAGAUCAUCACAGCGUGAGAACGUGGCUGUGGCUAGACUGCC, the self-cleavage was 0.17. With UGCACUGCUCAACACAGCGUGGCAACGUGGUUGUGGCUAGACUGGC the self-cleavage was 0.06. In the case of GGCAGAGCUCAACACAGCGUGGCAAAGUCUAUGUGGCUAGACUGCC, the self-cleavage is reported as 0.77. For GGGAGAGCUCAACACAGCGUGGCAAAGUGGCUGUGGCGAGACUCCC, the self-cleavage was 0.01. GGCAGAGCACAACAGAGCGUUGCAAAGUGGCAGUGGCUAGACUGCC gave a self-cleavage of 0.21. GGCAGAGCUCAACACAGCGUGGCAAAGUGGCUGUGGGUAGAAAGCC gave a self-cleavage of 0.06. GGCAGAGCACAACACAGCGUGACAAAGUGGGUCUGACUACUCUGUC showed a self-cleavage of 0.13. In the case of GGCAGAGCUCCAGACAGCGUGGCAAAGUGGCUUUGGCUAGACUGCC, the self-cleavage is reported as 0.02.
